Data taken from article PMC6919601, “Identification of Plasmodium dipeptidyl aminopeptidase allosteric inhibitors by high throughput screening” (PLoS ONE, 2019).
The whole screen tested about 110,000 compounds, of which about 230 (0.21%) showed an effect of 50% or more. The list shows a part of the results.

Molecular target: DPAP1 (Plasmodium falciparum, UniProt Q8IIJ9)
Test: primary screen, percent inhibition; read by cleavage of a fluorogenic dipeptide substrate; higher = more effect of the substance
Set-up: species or system P. falciparum D10 trophozoite lysates; single well
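Also: 30 min substrate incubation versus DMSO and 10 µM JCP410 controls.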

DPAP1, sequence (Q8IIJ9 whole entry, looked up): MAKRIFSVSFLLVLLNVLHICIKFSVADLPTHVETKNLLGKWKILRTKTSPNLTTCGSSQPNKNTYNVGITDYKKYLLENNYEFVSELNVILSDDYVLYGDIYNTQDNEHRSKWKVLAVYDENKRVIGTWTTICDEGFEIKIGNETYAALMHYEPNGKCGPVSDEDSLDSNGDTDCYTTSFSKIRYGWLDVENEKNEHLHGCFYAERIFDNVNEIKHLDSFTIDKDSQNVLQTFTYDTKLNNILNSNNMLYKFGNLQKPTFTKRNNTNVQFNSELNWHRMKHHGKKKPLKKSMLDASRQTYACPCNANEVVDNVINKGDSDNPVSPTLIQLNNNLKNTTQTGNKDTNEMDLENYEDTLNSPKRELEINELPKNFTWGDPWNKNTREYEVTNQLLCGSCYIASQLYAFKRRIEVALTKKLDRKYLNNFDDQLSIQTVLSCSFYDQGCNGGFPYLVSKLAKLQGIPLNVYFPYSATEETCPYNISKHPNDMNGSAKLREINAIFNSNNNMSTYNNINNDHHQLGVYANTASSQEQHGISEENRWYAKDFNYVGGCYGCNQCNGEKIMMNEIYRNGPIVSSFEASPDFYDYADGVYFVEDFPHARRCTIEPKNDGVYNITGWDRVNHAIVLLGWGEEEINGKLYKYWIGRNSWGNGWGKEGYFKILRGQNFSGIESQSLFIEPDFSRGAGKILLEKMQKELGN

Compound | % Inhibition @ 10 uM
COc1ccc2ccccc2c1CN1CCSCC1 | 1.26%
COc1ccc(C(=O)Nc2ccc(Cl)cc2Cl)cc1 | 5.09%
O=C(NCc1ccccc1)c1cc2ncc(Br)cn2n1 | 1.87%
COCCCNC(=O)Nc1cnc2ccccn2c1=O | 0.401%
Cc1c(CO)c2ccccc2n1Cc1ccc(Br)cc1 | 2.1%
NC(=O)c1ccccc1Nc1cccc(Cl)c1 | -0.116%
CCOc1ccc(Br)cc1S(=O)(=O)NC1CC(C)(C)NC(C)(C)C1 | 0.324%
CC1=C(C#N)c2nc(N)c(C#N)c(C)c2/C1=C/c1cc(Cl)c(OCC(=O)O)c(Cl)c1 | 20.8%
O=C(NCCCN1CCOCC1)c1cc(-c2ccccc2F)no1 | -3.57%
CCOC(=O)c1c(NC(=O)C(CC)Sc2nc(C)cc(C)n2)sc2c1CCCC2 (stereo not drawn) | 5.98%
COc1ccc(C2=N/C(=C/c3cccnc3)C(=O)O2)cc1Br | 3.42%
COc1cccc(NC(=O)c2cc(-c3ccco3)nc3ccccc23)c1 | 2.06%
CCOC(=O)C1=C(C)N(c2ccc(C)c(C)c2)C(=O)C1 | -2.18%
CC(NC(=O)Cn1ncc2c3ccccc3n(Cc3ccccc3)c2c1=O)c1ccc2c(c1)OCCO2 (stereo not drawn) | 0.137%
COC(=O)c1cn(CC(=O)N2CCc3ccccc3C2)c2ccccc12 | -5.51%
Cc1ccc(CCNc2ccccc2)cn1 | -0.744%
COc1ccc(-n2cc(C(=O)c3cccc(Br)c3)c(C(C)=O)n2)cc1 | -9.59%
FC(F)(F)c1ccc(Cl)c(N2CC(c3ccccc3)C(c3cccs3)=N2)c1 (stereo not drawn) | -1.5%
CC(Oc1ccc(Cl)cc1Cl)C(=O)Nc1nc2c(s1)C(=O)CC(C)(C)C2 (stereo not drawn) | -3.27%
O=C(Nc1ccc2c(c1)OCO2)c1sc2ccccc2c1Cl | 1.38%
Cc1cccc(CN2CCN(CC(=O)NCC3COc4ccccc4O3)C2=O)c1 (stereo not drawn) | -2.41%
CCC(C(=O)N1CCC(C)CC1)n1nc(C)c2sc3ccccc3c2c1=O (stereo not drawn) | 1.91%

Compound | % Inhibition @ 10 uM
COc1ccc(-c2nnc3s/c(=C\c4ccccc4)c(=O)n23)cc1 | -1.78%
C=CCOc1ccccc1CN(C)C1CCN(C)CC1 | 1.74%
COc1ccc(N2CCN(Cc3cc(OC)c(O)c(OC)c3)CC2)cc1 | -2.81%
c1ccc2c(c1)c(N1CCCC1)nn1nnnc21 | 1.49%
CSC1=C(C#N)C(c2ccc(Cl)cc2Cl)CC(=O)N1 (stereo not drawn) | -0.436%
CCn1c(NCc2cc(OC)c(OC)c(OC)c2)nc2ccccc21 | 2.3%
CC1=CSC2=NC(=O)/C(=C/c3cc(C)n(-c4cccc(C(F)(F)F)c4)c3C)C(=N)N12 | -2.98%
Cn1c(=O)c2nc(-c3ccc(OCC(=O)NCC4CCCO4)cc3)[nH]c2n(C)c1=O (stereo not drawn) | -5.2%
COC(=O)c1ccccc1NC(=O)c1ccc(C(C)(C)C)cc1 | 3.72%
O=C(CCC(=O)N1Cc2ccccc2Oc2ncccc21)NC1CCCC1 | 6.29%
COc1ccc(CNC(=O)c2nc(CS(=O)(=O)c3ccccc3)no2)cc1OC | -3.07%
CC1(C)CC(=O)c2cc(OCC(=O)NCc3cccnc3)ccc2O1 | -6.26%
C=CCN1C(=O)c2ccc(F)cc2C1=O | -2.44%
CS(=O)(=O)N(CC(=O)NCc1ccccc1Cl)c1cccc(F)c1 | 9.94%
O=C(O)CSC12CC3CC(CC(C3)C1)C2 | -0.415%
CCCc1ccc(S(=O)(=O)N2CCN(c3ncccn3)CC2)cc1 | -3.49%
COc1ccccc1N1CCN(C(=O)c2c(-c3c(F)cccc3Cl)noc2C)CC1 | -5.92%
CCOCCCNC(=O)c1ccc2snnc2c1 | -5.36%
O=C(O)c1c(CNCc2ccco2)c2ccccc2n1Cc1ccc(F)cc1Cl | 0.277%
CC(C)(C)Cc1nc2ccccc2n1Cc1ccccc1 | -4.07%
O=C(Nc1sc2c(c1C(=O)NCC1CCCO1)CCCC2)c1ccccc1Br (stereo not drawn) | 4.57%
COc1ccc(C2C(=O)N(C3CCCCC3)CC(=O)N2C2CC2)cc1OC (stereo not drawn) | -5.8%

Compound | % Inhibition @ 10 uM
CC(C)c1ccc(CNc2nc(N)n(-c3ccccc3)n2)cc1 | -1.63%
O=C(NCCc1ccc(Cl)cc1)C1CCC(CNS(=O)(=O)c2cccc3nsnc23)CC1 (stereo not drawn) | -2.25%
CN(C(=O)c1ccncc1)C1CC(C)(C)N(O)C(C)(C)C1 | -8.85%
Cc1ccc(CNC(=O)Cc2c(C)c3cc4c(C)coc4c(C)c3oc2=O)cc1 | -4.39%
Cc1ccc(C(=O)NCCc2ccccc2)cc1 | -0.569%
O=C(NCCN1CCOCC1)c1ccc(CS(=O)(=O)c2c(Cl)cccc2Cl)o1 | -0.971%
COc1cc(-c2nnc3sc(-c4ccco4)nn23)cc(OC)c1OC | 6.01%
Cc1nc(O)c(C#N)c(C)c1CSc1ncccn1 | -1.64%
O=C1c2ccc(F)cc2C(=O)N1c1nc2ccccc2s1 | -2.42%
COc1cccc(CNc2cnc3ccccc3c2)c1O | -2.14%
CCOc1ccc(C2C(C#N)=C(N)N(c3ccc(F)cc3)C3=C2C(=O)CCC3)cc1 (stereo not drawn) | -0.988%
N#Cc1c(N)n(-c2ccc(Br)cc2)c2nc3ccccc3nc12 | 3.16%
O=C(COc1cccc(N2C(=O)c3ccccc3C2=O)c1)c1ccccc1 | 2.63%
O=C1c2ccccc2C(=O)C1(NCc1ccccc1)c1ccccc1 | -0.349%
COc1cc(C2NC(C(=O)O)CS2)cc(OC)c1OC (stereo not drawn) | -2.45%
CCC(C)NS(=O)(=O)c1csc(C(N)=O)c1 (stereo not drawn) | 6.59%
COc1ccccc1-c1nnc2sc(-c3ccccn3)nn12 | -0.45%
Cc1ccc(S(=O)(=O)c2cc3c(=O)n4ccccc4nc3n(C)c2=N)cc1 | 57.9%
COC(=O)c1cccc(NC(=O)c2ccccc2C(=O)O)c1 | 0.00784%
CCOC(=O)c1sc(N2C(=O)c3oc4ccccc4c(=O)c3C2c2ccccc2)nc1C (stereo not drawn) | 4.99%
CCN(C(=O)N1CCOCC1)c1ccccc1C | 12.9%
Cc1nn(CCCC(=O)NCC2CCCO2)c(=O)c2cc3sccc3n12 (stereo not drawn) | -1.58%
